Measured values from patent EP4501965A1.

Columns and labels:
[1] = molecular target: PLA2R-Ab in plasma pMN-2 of a PLA2R antibody-positive membranous nephropathy patient (human); test: competition ELISA (kit, PLA2R capture), RC6 at 5 µg/mL in plasma pMN-2
[2] = molecular target: PLA2R-Ab in plasma pMN-7 of a PLA2R antibody-positive membranous nephropathy patient (human); test: competition ELISA (kit, PLA2R capture), RC6 at 5 µg/mL in plasma pMN-7
[3] = molecular target: PLA2R-Ab in plasma pMN-4 of a PLA2R antibody-positive membranous nephropathy patient (human); test: competition ELISA (kit, PLA2R capture), RC6 at 5 µg/mL in plasma pMN-4
[4] = molecular target: PLA2R-Ab in plasma pMN-4 of a PLA2R antibody-positive membranous nephropathy patient (human); test: adsorption of plasma PMN-4 on RC6-NHS Bestarose, remaining PLA2R-Ab read by ELISA kit
[5] = molecular target: PLA2R-Ab in plasma pMN-7 of a PLA2R antibody-positive membranous nephropathy patient (human); test: adsorption of plasma PMN-7 on RC6-NHS Bestarose, remaining PLA2R-Ab read by ELISA kit

B1: RC6 (Fc fusion)
chain: [about 200 residues left out]NSHICYQFNLLSSLSWSEAHSSCQMQGGTLLSITDETEENFIREHMSSKTVEVWMGLNQLDEHAGWQWSDGTPLNYLNWSPEVNFEPFVEDHCGTFSSFMPSAWRSRDCESTLPYICKKYLNHIDHEIVEKDAWKYYATHCEPGWNPYNRNCYKLQKEEKTWHEALRSCQADNSALIDITSLAEVEFLVTLLGDENASETWIGLSSNKIPVSFEWSNDSSVIFTNWHTLEPHIFPNRSQLCVSAEQSEGHWKVKNCEERLFYICKKAGHVLSDGGGGSGGG[human IgG1 Fc and a few adjoining residues left out]
[1]
  Neutralization rate: 96%
[2]
  Neutralization rate: 81%
[3]
  Neutralization rate: 82%
[4]
  clearance rate: > 80%
[5]
  clearance rate: > 80%
